In the supplement of paper PMC8728848:
Some of the results follow.

How the values were obtained:
Assay in all cases: glycan array binding signal (z-score within array); higher = stronger binding
Details in all cases: glycan notation: IUPAC condensed, linker removed
[1] = target: Neu5Ac(a2-3)[GalNAc(b1-4)]Gal(b1-4)GlcNAc(b1-3)GalNAc
Summary of the method: (§1)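 Negative Z-scores can be read as non-binding. The Z-score is calculated within each array and then averaged across arrays of one protein sequence at different concentrations or buffers and across linkers. Arrays, 3228 in all, were curated from the Consortium for Functional Glycomics database and kept only where the protein sequence was available.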

[2] = target: Neu5Ac(a2-3)[Neu5Ac(a2-6)]GalNAc
Summary of the method: as §1

Neu5Ac(a2-6)Gal = target: Neu5Ac(a2-6)Gal
Summary of the method: as §1

[3] = target: Neu5Ac(a2-6)Gal(b1-3)GlcNAc(b1-3)[Gal(b1-4)GlcNAc(b1-6)]Gal(b1-4)Glc
Summary of the method: as §1

Neu5Ac(a2-6)Gal(b1-4)Glc = target: Neu5Ac(a2-6)Gal(b1-4)Glc
Summary of the method: as §1

[4] = target: Neu5Ac(a2-6)Gal(b1-4)GlcNAc
Summary of the method: as §1

[5] = target: Neu5Ac(a2-6)Gal(b1-4)GlcNAc(b1-2)Man
Summary of the method: as §1

[6] = target: Neu5Ac(a2-6)Gal(b1-4)GlcNAc(b1-2)Man(a1-3)Man(b1-4)GlcNAc(b1-4)GlcNAc
Summary of the method: as §1

[7] = target: Neu5Ac(a2-6)Gal(b1-4)GlcNAc(b1-2)Man(a1-3)[Gal(b1-4)GlcNAc(b1-2)Man(a1-6)]Man(b1-4)GlcNAc(b1-4)GlcNAc
Summary of the method: as §1

[8] = target: Neu5Ac(a2-6)Gal(b1-4)GlcNAc(b1-2)Man(a1-3)[GlcNAc(b1-2)Man(a1-6)]Man(b1-4)GlcNAc(b1-4)GlcNAc
Summary of the method: as §1

[9] = target: Neu5Ac(a2-6)Gal(b1-4)GlcNAc(b1-2)Man(a1-3)[GlcNAc(b1-2)Man(b1-4)GlcNAc(b1-2)Man(a1-6)]Man(b1-4)GlcNAc(b1-4)GlcNAc
Summary of the method: as §1

[10] = target: Neu5Ac(a2-6)Gal(b1-4)GlcNAc(b1-2)Man(a1-3)[GlcNAc(b1-4)][Neu5Ac(a2-6)Gal(b1-4)GlcNAc(b1-2)Man(a1-6)]Man(b1-4)GlcNAc(b1-4)GlcNAc
Summary of the method: as §1

[11] = target: Neu5Ac(a2-6)Gal(b1-4)GlcNAc(b1-2)Man(a1-3)[Man(a1-6)]Man(b1-4)GlcNAc(b1-4)GlcNAc
Summary of the method: as §1

[12] = target: Neu5Ac(a2-6)Gal(b1-4)GlcNAc(b1-2)Man(a1-3)[Neu5Ac(a2-3)Gal(b1-4)GlcNAc(b1-2)Man(a1-6)]Man(b1-4)GlcNAc(b1-4)GlcNAc
Summary of the method: as §1

[13] = target: Neu5Ac(a2-6)Gal(b1-4)GlcNAc(b1-2)Man(a1-3)[Neu5Ac(a2-6)Gal(b1-4)GlcNAc(b1-2)Man(a1-6)]Man(b1-4)GlcNAc(b1-4)GlcNAc
Summary of the method: as §1

[14] = target: Neu5Ac(a2-6)Gal(b1-4)GlcNAc(b1-2)Man(a1-3)[Neu5Ac(a2-6)Gal(b1-4)GlcNAc(b1-2)Man(a1-6)]Man(b1-4)GlcNAc(b1-4)[Fuc(a1-6)]GlcNAc
Summary of the method: as §1

[15] = target: Neu5Ac(a2-6)Gal(b1-4)GlcNAc(b1-2)Man(a1-6)Man(b1-4)GlcNAc(b1-4)GlcNAc
Summary of the method: as §1

[16] = target: Neu5Ac(a2-6)Gal(b1-4)GlcNAc(b1-2)Man(a1-6)[Gal(b1-4)GlcNAc(b1-2)Man(a1-3)]Man(b1-4)GlcNAc(b1-4)GlcNAc
Summary of the method: as §1

[17] = target: Neu5Ac(a2-6)Gal(b1-4)GlcNAc(b1-2)Man(a1-6)[GlcNAc(b1-2)Man(a1-3)]Man(b1-4)GlcNAc(b1-4)GlcNAc
Summary of the method: as §1

[18] = target: Neu5Ac(a2-6)Gal(b1-4)GlcNAc(b1-2)Man(a1-6)[Man(a1-3)]Man(b1-4)GlcNAc(b1-4)GlcNAc
Summary of the method: as §1

[19] = target: Neu5Ac(a2-6)Gal(b1-4)GlcNAc(b1-2)[Neu5Ac(a2-6)Gal(b1-4)GlcNAc(b1-4)]Man(a1-3)[GlcNAc(b1-4)][Neu5Ac(a2-6)Gal(b1-4)GlcNAc(b1-2)[Neu5Ac(a2-6)Gal(b1-4)GlcNAc(b1-6)]Man(a1-6)]Man(b1-4)GlcNAc(b1-4)GlcNAc
Summary of the method: as §1

[20] = target: Neu5Ac(a2-6)Gal(b1-4)GlcNAc(b1-2)[Neu5Ac(a2-6)Gal(b1-4)GlcNAc(b1-4)]Man(a1-3)[GlcNAc(b1-4)][Neu5Ac(a2-6)Gal(b1-4)GlcNAc(b1-4)Man(a1-6)]Man(b1-4)GlcNAc(b1-4)GlcNAc
Summary of the method: as §1

[21] = target: Neu5Ac(a2-6)Gal(b1-4)GlcNAc(b1-2)[Neu5Ac(a2-6)Gal(b1-4)GlcNAc(b1-6)]Man(a1-6)[Neu5Ac(a2-6)Gal(b1-4)GlcNAc(b1-2)Man(a1-3)][GlcNAc(b1-4)]Man(b1-4)GlcNAc(b1-4)GlcNAc
Summary of the method: as §1

[22] = target: Neu5Ac(a2-6)Gal(b1-4)GlcNAc(b1-3)Gal(b1-3)GlcNAc
Summary of the method: as §1

[23] = target: Neu5Ac(a2-6)Gal(b1-4)GlcNAc(b1-3)Gal(b1-4)GlcNAc
Summary of the method: as §1

[24] = target: Neu5Ac(a2-6)Gal(b1-4)GlcNAc(b1-3)Gal(b1-4)GlcNAc(b1-2)Man(a1-3)[Neu5Ac(a2-6)Gal(b1-4)GlcNAc(b1-3)Gal(b1-4)GlcNAc(b1-2)Man(a1-6)]GalNAc
Summary of the method: as §1

[25] = target: Neu5Ac(a2-6)Gal(b1-4)GlcNAc(b1-3)Gal(b1-4)GlcNAc(b1-3)Gal(b1-4)GlcNAc
Summary of the method: as §1

[26] = target: Neu5Ac(a2-6)Gal(b1-4)GlcNAc(b1-3)Gal(b1-4)GlcNAc(b1-3)Gal(b1-4)GlcNAc(b1-2)Man(a1-3)[Neu5Ac(a2-6)Gal(b1-4)GlcNAc(b1-3)Gal(b1-4)GlcNAc(b1-3)Gal(b1-4)GlcNAc(b1-2)Man(a1-6)]GalNAc
Summary of the method: as §1

[27] = target: Neu5Ac(a2-6)Gal(b1-4)GlcNAc(b1-3)Gal(b1-4)GlcNAc(b1-3)GalNAc
Summary of the method: as §1

[28] = target: Neu5Ac(a2-6)Gal(b1-4)GlcNAc(b1-3)Gal(b1-4)GlcNAc(b1-3)[Neu5Ac(a2-6)Gal(b1-4)GlcNAc(b1-3)Gal(b1-4)GlcNAc(b1-6)]GalNAc
Summary of the method: as §1

[29] = target: Neu5Ac(a2-6)Gal(b1-4)GlcNAc(b1-3)Gal(b1-4)GlcNAc(b1-6)[Gal(b1-3)]GalNAc
Summary of the method: as §1

[30] = target: Neu5Ac(a2-6)Gal(b1-4)GlcNAc(b1-3)Gal(b1-4)[Fuc(a1-3)]GlcNAc(b1-3)Gal(b1-4)[Fuc(a1-3)]GlcNAc
Summary of the method: as §1

[31] = target: Neu5Ac(a2-6)Gal(b1-4)GlcNAc(b1-3)GalNAc
Summary of the method: as §1

[32] = target: Neu5Ac(a2-6)Gal(b1-4)GlcNAc(b1-3)[Neu5Ac(a2-6)Gal(b1-4)GlcNAc(b1-6)]GalNAc
Summary of the method: as §1

[33] = target: Neu5Ac(a2-6)Gal(b1-4)GlcNAc(b1-6)GalNAc
Summary of the method: as §1

[34] = target: Neu5Ac(a2-6)Gal(b1-4)GlcNAc(b1-6)[Gal(b1-3)GlcNAc(b1-3)]Gal(b1-4)Glc
Summary of the method: as §1

[35] = target: Neu5Ac(a2-6)Gal(b1-4)GlcNAc(b1-6)[Gal(b1-3)]GalNAc
Summary of the method: as §1

B1: Siglec-7-SA-PE-180 (Homo sapiens), Q9Y286 (protein)
chain: MLLLLLLPLLWGRERVEGQKSNRKDYSLTMQSSVTVQEGMCVHVRCSFSYPVDSQTDSDPVHGYWFRAGNDISWKAPVATNNPAWAVQEETRDRFHLLGDPQTKNCTLSIRDARMSDAGRYFFRMEKGNIKWNYKYDQLSVNVTALTHRPNILIPGTLESGCFQNLTCSVPWACEQGTPPMISWMGTSVSPLHPSTTRSSVLTLIPQPQHHGTSLTCQVTLPGAGVTTNRTIQLNVSYPPQNLTVTVFQGEGTASTALGNSSSLSVLEGQSLRLVCAVDSNPPARLSWTWRSLTLYPSQPSNPLVLELQVHLGDEGEFTCRAQNSLGSQHVSLNLSLQQEYTGKMRPVSGVLLGAVGGAGATALVFLSFCVIFIVVRSCRKKSARPAADVGDIGMKDANTIRGSASQGNLTESWADDNPRHHGLAAHSSGEEREIQYAPLSFHKGEPQDLSGQEATNNEYSEIKIPK
glycan array binding signal (z-score) [1]: 0.025
glycan array binding signal (z-score) [2]: 3.03
glycan array binding signal (z-score) (Neu5Ac(a2-6)Gal): 0.788
glycan array binding signal (z-score) [3]: -0.362
glycan array binding signal (z-score) (Neu5Ac(a2-6)Gal(b1-4)Glc): 0.151
glycan array binding signal (z-score) [4]: 0.3
glycan array binding signal (z-score) [5]: -0.372
glycan array binding signal (z-score) [6]: -0.047
glycan array binding signal (z-score) [7]: -0.303
glycan array binding signal (z-score) [8]: -0.249
glycan array binding signal (z-score) [9]: -0.402
glycan array binding signal (z-score) [10]: -0.177
glycan array binding signal (z-score) [11]: -0.028
glycan array binding signal (z-score) [12]: 0.991
glycan array binding signal (z-score) [13]: -0.088
glycan array binding signal (z-score) [14]: -0.154
glycan array binding signal (z-score) [15]: -0.076
glycan array binding signal (z-score) [16]: -0.12
glycan array binding signal (z-score) [17]: -0.334
glycan array binding signal (z-score) [18]: -0.135
glycan array binding signal (z-score) [19]: -0.159
glycan array binding signal (z-score) [20]: 0.514
glycan array binding signal (z-score) [21]: -0.04
glycan array binding signal (z-score) [22]: -0.219
glycan array binding signal (z-score) [23]: 0.369
glycan array binding signal (z-score) [24]: 0.25
glycan array binding signal (z-score) [25]: -0.078
glycan array binding signal (z-score) [26]: 0.262
glycan array binding signal (z-score) [27]: -0.587
glycan array binding signal (z-score) [28]: 0.185
glycan array binding signal (z-score) [29]: 0.148
glycan array binding signal (z-score) [30]: -0.037
glycan array binding signal (z-score) [31]: -0.252
glycan array binding signal (z-score) [32]: -0.278
glycan array binding signal (z-score) [33]: -0.258
glycan array binding signal (z-score) [34]: -0.273
glycan array binding signal (z-score) [35]: 0.216
